Measurements: PubChem BioAssay AID588855 (National Center for Advancing Translational Sciences (NCATS), 2011)
Several values for one entry are separate records, joined by “and”; a condition that tells them apart may be missing. Equal entries are not always repeated. About 5,000 (1.2%) of roughly 410,000 compounds were called active. This list was built around the results that the source calls inconclusive (neither active nor inactive); the mix of calls is not that of the screen. Calls follow the shape of the dose curve; as a rule, active = well fitted inhibition curve with a large enough effect; inconclusive = small, poorly fitted or top-dose-only effect; inactive = no such curve, though single readings can be large or run the other way. Where the call is inconclusive, the potency comes from a doubtful curve fit.

Assay: qHTS for Inhibitors of TGF-b; also: nearly all actives have a fitted effect of over 65% in size
Conditions: HepG2 CAGA-GFP TGF-b/SMAD3 reporter, GFP fluorescence, 18 h, TGF-beta stimulated, 500 pg/mL final; series mostly up to 46.1 µM
Summary of the method: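 Using HEPG2 CAGA-GFP reporter cells at 1000 cells/well, we pinned test compounds, stimulated with recombinant TGF-beta (500 pg/mL final) and measured total well GFP after 18 h.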
Potency is read from the fitted curve at half-maximal effect; tags tell the direction and shape of the fitted curve.

| Structure (SMILES) | Potency |
| --- | --- |
| COC(=O)Cc1nnc(SCC(=O)Nc2ccccc2)c2ccccc12 | inconclusive: 22.4 µM [inhibitor, single point] |
| CN1/C(=C\C=C2\N=C(c3ccc(F)cc3)OC2=O)C(C)(C)c2ccccc21 | inconclusive: 2 µM [inhibitor, single point] |
| Cc1cc(C)cc(OCC(=O)Nc2ccc(N3CCN(C(=O)c4ccco4)CC3)cc2)c1 | inconclusive: 10 µM [inhibitor, partial curve, poor fit] |
| CCOc1ccc(NS(=O)(=O)c2ccc(NC(=S)NC(=O)CC(C)C)cc2)cc1 | inactive |
| O=C(NCc1ccccc1Cl)C1CCN(C(=O)N2CCOc3ccccc32)CC1 | inconclusive: 11.2 µM [inhibitor, partial curve] |
| N#Cc1c(Nc2ccc(Cl)cc2)s[nH]c1=O | inconclusive: 5.62 µM [inhibitor, single point] |
| Cc1ccc(Cn2c(CCNc3nc(-c4ccc(Cl)c([N+](=O)[O-])c4)cs3)nc3cc(C(=O)NCCCO)ccc32)cc1 | inconclusive: 35.5 µM [inhibitor, single point] |
| CCCOc1ccc(C(=O)NC2CCSc3ccccc32)cc1 (stereo not drawn) | inactive |
| Cn1cc(S(=O)(=O)N2CCN(c3cccc(Cl)c3)CC2)c(=O)n(C)c1=O | inactive |
| O=C(O)c1ccc(/C=N/NC(=O)c2cc3ccccc3cc2O)cc1 | inconclusive: 35.5 µM [inhibitor, single point] |
| COC(=O)c1ccccc1NC(=O)c1cnn(-c2ccc(F)cc2)c1-n1cccc1 | inconclusive: 5.62 µM [inhibitor, single point] |
| CCOc1cccc(C(=O)N(Cc2cccc(F)c2)C2CCS(=O)(=O)C2)c1 (stereo not drawn) | inactive |
| CCc1nnc(NC(=O)c2ccc3ccccc3n2)s1 | inconclusive: 35.5 µM [inhibitor, single point] |
| CCOc1ccc(Cl)cc1CNCCCSc1nnnn1C | inactive |
| CN(C)C(CNC(=O)c1ccc(S(=O)(=O)Nc2ccccc2F)cc1)c1ccco1 (stereo not drawn) | inactive |
| CCOC(=O)CC(=O)CSc1nc(N)c(C#N)c(-c2ccc(Cl)cc2)c1C#N | inconclusive: 12.6 µM [inhibitor, single point] |
| CC(C)CN(C(=O)CN1CCN(c2ccccc2F)CC1)c1c(N)n(CC(C)C)c(=O)[nH]c1=O | inconclusive: 35.5 µM [inhibitor, single point] |
| CNC(=O)c1c(NC(=O)C2=COCCO2)sc(C)c1C | inactive |
| O=C(NCCc1nc2ccccc2[nH]1)/C(=C/c1ccc2c(c1)OCO2)NC(=O)c1ccc(Cl)cc1Cl | inconclusive: 35.5 µM [inhibitor, single point] |
| CCOc1ccc(NC(=O)C2CCCN(c3cnccn3)C2)cc1 (stereo not drawn) | inactive |
| Cc1cc(-c2ccccc2)nc(N/N=C/c2ccc(N(C)C)cc2)n1 | inconclusive: 22.4 µM [inhibitor, single point] |
| O=C(CCC(=O)N1CCN(c2ccccn2)CC1)c1ccc(Cl)s1 | inconclusive: 35.5 µM [inhibitor, single point] |
| CN(C)c1ccc(NC(=O)c2cnsn2)cc1 | inactive |
| CCOC(=O)C1=C(COC(=O)c2cccnc2SC)NC(=O)NC1C (stereo not drawn) | inactive |
| CCc1sc(C(=O)Nc2ncccc2O)cc1C | inactive |

| Structure (SMILES) | Potency |
| --- | --- |
| COCCNC(=S)N(CCc1c(C)[nH]c2ccc(F)cc12)Cc1ccc(C)cc1 | inconclusive: 35.5 µM [inhibitor, single point] |
| Cc1ccc(C2CC2C(=O)NNC(=S)Nc2cccc(C)c2)cc1 (stereo not drawn) | inactive |
| O=C(Nc1nnc(C2=COCCO2)o1)c1cccc(Br)c1 | inactive |
| Cc1ccccc1CNC(=O)c1oc2c(c1C)-c1nn(Cc3ccc(Cl)cc3)cc1CC2 | inactive |
| CCN(CC)S(=O)(=O)c1ccc2c(c1)N(CC(=O)Nc1ccc(OC)cc1)C(=O)CS2 | inactive |
| O=C(CCCNC(=O)c1ccc(Cl)cc1)Nc1ccc(F)c(S(=O)(=O)N2CCOCC2)c1 | inconclusive: 35.5 µM [inhibitor, single point] |
| Cc1ccn2c(CN3CCOCC3)c(-c3ccccc3)nc2c1 | inconclusive: 3.16 µM [inhibitor, single point] |
| CCc1ccc2c(CN3CCN(S(=O)(=O)c4ccccc4F)CC3)cc(=O)oc2c1 | inactive |
| C/C(CC1CC2=C(CC1(C)C)C(C)(C)CCC2)=N\NC(N)=S (stereo not drawn) | active: 7.94 µM |
| Fc1ccc(NC(=S)Nc2nccs2)cc1 | inconclusive: 28.2 µM [inhibitor, single point] |
| C/C(=N\OC(=O)c1ccc(Br)cc1)c1ccccn1 | inactive |
| CC1(C)CC(=O)C2=C(C1)N(c1ccccc1)C(N)=C(C#N)C2c1cccnc1 (stereo not drawn) | inactive |
| CCOC(=O)N1CCN(C(=O)c2ccccc2NC(=O)COc2ccccc2)CC1 | inactive |
| COc1ccc(NC(=O)c2cccc3ccccc23)cc1OC | inactive |
| COc1ccc(S(=O)(=O)Nc2ccc3c(c2)OCCO3)cc1Cl | inconclusive: 12.6 µM [inhibitor, single point] |
| CC(=O)Nc1cc(-c2ccccc2F)cn2c(-c3cccc(C(F)(F)F)c3)cnc12 | inconclusive: 35.5 µM [inhibitor, single point] |
| COc1ccccc1Oc1nc(-c2ccccc2)cc(C)c1S(C)(=O)=O | inconclusive: 35.5 µM [inhibitor, single point] |
| CCC(Oc1ccccc1)C(=O)Nc1ccccc1N1CCCC1 (stereo not drawn) | inactive |
| CCCc1cc(-c2n[nH]c(=S)n2CC)c2ccccc2n1 | inconclusive: 2.82 µM [inhibitor, full curve] |
| Cc1cccc2sc(NNC(=O)c3cc(-c4cccs4)nc4ccccc34)nc12 | inconclusive: 15.8 µM [inhibitor, partial curve, poor fit] |
| O=C(NCC1CCCCC1)c1cccc(-c2ccc(O)cc2)c1 | active: 12.6 µM |
| Cc1noc(C)c1S(=O)(=O)NCc1cccc(Cl)c1 | inactive |
| Cc1cc(C)cc(OC(=O)c2cc(-c3ccc(Cl)cc3)on2)c1 | inactive |
| CCn1c(=O)c(C(=O)NNC(=O)c2cccc(Cl)c2)c(O)c2ccccc21 | inconclusive: 35.5 µM [inhibitor, single point] |
| Cc1ccc(Cn2c(C3CCCN3c3nc(-c4ccc(F)cc4)cs3)nc3cc(C(F)(F)F)ccc32)cc1 (stereo not drawn) | inactive |

| Structure (SMILES) | Potency |
| --- | --- |
| NC(=O)c1c(-c2cccs2)csc1N | inconclusive: 6.31 µM [inhibitor, single point] |
| CN1CCc2c(sc(NC(=O)c3ccc([N+](=O)[O-])o3)c2C(N)=O)C1 | active: 1.78 µM |
| c1ccc2c(c1)SCc1nnc(-c3ccncc3)n1-2 | inconclusive: 35.5 µM [inhibitor, single point] |
| O=S(=O)(Nc1ccc(-c2ccc(N3CCCC3)nn2)cc1)c1ccc(C(F)(F)F)cc1 | inconclusive: 35.5 µM [inhibitor, partial curve, poor fit] |
| CS(=O)(=O)c1ccc(Nc2nc(C(N)Cc3ccc(C(F)(F)F)cc3)cs2)cc1 (stereo not drawn) | inconclusive: 35.5 µM [inhibitor, single point] |
| CCN(Cc1ccccc1)S(=O)(=O)c1cc(C(=O)c2c(N)n(C)c(=O)n(C)c2=O)ccc1OC | inactive |
| CCCCN(C(=O)c1ccc2c(c1)OCO2)c1ccccc1 | inconclusive: 22.4 µM [inhibitor, single point] |
| Cc1nnc(N2CCCC(C(=O)NCCN(C)C)C2)c2nn(-c3ccccc3)c(C)c12 (stereo not drawn) | inactive |
| CN1c2ccccc2C(C)(C)C12CCCC(=O)N2 (stereo not drawn) | inactive |
| Cc1cc2c(c(C)c1CCO)C(=O)[C@H](C)C2 | inactive |
| Cc1ccc(Cc2cnc(NC(=O)CN3CCOCC3)s2)cc1Cl | inconclusive: 22.4 µM [inhibitor, single point] |
| COc1ccc(S(=O)(=O)Nc2ccc(F)c(F)c2)cc1C(=O)N1CCOCC1 | inactive |
| Oc1ccc(C[C@H]2CNC(=S)N2CC2CCCN2C[C@H](Cc2ccccc2)N2C[C@H](Cc3ccc(O)cc3)N(CC3CCCCC3)C2=S)cc1 (stereo partly drawn) | active: 5.62 µM |
| CC1CCN(c2nc(-c3ccncc3)nc3ccccc23)CC1 | inconclusive: 35.5 µM [inhibitor, single point] |
| COc1ccc(-c2nc3sc(CCNC(=O)Cc4ccc(F)cc4)c(C)n3n2)cc1 | inconclusive: 3.55 µM [inhibitor, partial curve, poor fit] |
| Cc1ccc(-c2nc3ccccc3o2)cc1NC(=O)Cc1cccs1 | inconclusive: 5.62 µM [inhibitor, single point] |
| C(=C\c1ccccc1)/CN1CCN(C(c2nnnn2Cc2ccccc2)C2CC2)CC1 (stereo not drawn) | inconclusive: 22.4 µM [inhibitor, single point] |
| CCc1ccc(CN(C)C(=O)c2cc(COc3cccc4cnccc34)on2)cc1 | active: 10 µM |
| Cc1cccc(NC(=S)NCCc2ccc(Cl)cc2)c1C | inconclusive: 11.2 µM [inhibitor, partial curve, poor fit] |
| CCN1CCN(CCCNC(=O)CS(=O)(=O)Cc2nc(-c3ccccc3C)oc2C)CC1 | inconclusive: 12.6 µM [inhibitor, single point] |
| O=C(c1ccccc1[N+](=O)[O-])N(CCc1ccccc1)Cc1ccccc1 | inconclusive: 35.5 µM [inhibitor, single point] |
| COc1ccc(C(CCN2CCCCC2)c2c(OC)cc(OC)c3c(-c4ccccc4)cc(=O)oc23)cc1 (stereo not drawn) | inconclusive: 35.5 µM [inhibitor, single point] and inconclusive: 17.8 µM [inhibitor, single point] |
| CCNc1nc(Oc2ccc(F)cc2)cc(C(F)(F)F)n1 | inconclusive: 6.31 µM [inhibitor, single point] |
